Reference: the supplement of paper PMC4967469
IC50 is the fitted dose that halves viability relative to control wells, and lower means more sensitive; where the fit passes the top or lowest dose, that dose stands as a limit. AUC is the area under the same curve over the 256-fold range up to the top dose, as a fraction; the more sensitive the line, the further below 1. Any top dose called inferred was derived from the fitted curves, not read from the paper. For some of these results: An entry number marks a drug with two screens in the source, which often give different values.

Key:
Assay in all cases: Viability of human cancer cell lines after 72 h of drug (GDSC screen)
Shikonin = compound: CC(C)=CC[C@@H](O)C1=CC(=O)c2c(O)ccc(O)c2C1=O [Shikonin]; conditions: top dose 16 µM; top dose inferred
Experimental: (§1)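 Human cancer cell lines in 384-well plates, medium with 10% serum, drug for 72 h over a 256-fold dose range (nine 2-fold or five 4-fold steps up to the top dose). Adherent lines were fixed and stained with the nucleic acid dye Syto60, suspension lines read with resazurin; signal relative to control wells, capped at 0 and 100%. One two-parameter sigmoid per drug and line, fitted in a mixed model over all curves with the slope shared within a line.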

CGP-082996 (CINK4) = compound: CCNc1cc(NC2CCC(O)CC2)nc(Nc2ccc3c(ccn3Cc3ccccc3)c2)n1 [CGP-082996 (CINK4)]; conditions: top dose 5.12 µM; top dose inferred
Experimental: as §1

HG-5-113-01 = compound: CNC(=O)c1ccc(Nc2cc(Nc3ccccc3S(=O)(=O)C(C)C)c3cc[nH]c3n2)nc1 [HG-5-113-01]; conditions: top dose 10 µM; top dose inferred
Experimental: as §1

A-770041 = compound: COc1cc(-c2nn([C@H]3CC[C@H](N4CCN(C(C)=O)CC4)CC3)c3ncnc(N)c23)ccc1NC(=O)c1cc2ccccc2n1C [A-770041]; conditions: top dose 5.12 µM; top dose inferred
Experimental: as §1

XMD8-85 = compound: COc1cc(N2CCN(C)CC2)ccc1Nc1ncc2c(n1)N(C)c1ccccc1C(=O)N2C [XMD8-85]; conditions: top dose 8 µM; top dose inferred
Experimental: as §1

BMS-536924 = compound: Cc1cc(N2CCOCC2)cc2[nH]c(-c3c(NC[C@@H](O)c4cccc(Cl)c4)cc[nH]c3=O)nc12 [BMS-536924]
Experimental: as §1

BIRB 0796 = compound: Cc1ccc(-n2nc(C(C)(C)C)cc2NC(=O)Nc2ccc(OCCN3CCOCC3)c3ccccc23)cc1 [BIRB 0796]; conditions: top dose 10 µM; top dose inferred
Experimental: as §1

SB-525334 = compound: Cc1cccc(-c2[nH]c(C(C)(C)C)nc2-c2ccc3nccnc3c2)n1 [SB-525334]; conditions: top dose 20 µM; top dose inferred
Experimental: as §1

VX-702 = compound: NC(=O)c1ccc(N(C(N)=O)c2c(F)cccc2F)nc1-c1ccc(F)cc1F [VX-702]; conditions: top dose 2 µM; top dose inferred
Experimental: as §1

Olaparib = compound: O=C(c1cc(Cc2n[nH]c(=O)c3ccccc23)ccc1F)N1CCN(C(=O)C2CC2)CC1 [Olaparib]
Experimental: as §1

Wee1 inhibitor 681640 = compound: O=C1NC(=O)c2c1c(-c1ccccc1Cl)cc1[nH]c3ccc(O)cc3c21 [Wee1 inhibitor 681640]; conditions: top dose 2 µM; top dose inferred
Experimental: as §1

[1] = top dose 4 µM, screen: GDSC drug entry 1091, top dose inferred
[2] = top dose 5.12 µM, screen: GDSC drug entry 62
[3] = top dose 5 µM, screen: GDSC drug entry 1017, top dose inferred
[4] = top dose 10 µM, screen: GDSC drug entry 1495

Cell Line | AUC (Shikonin) | IC50 (Shikonin) [µM] | AUC (CGP-082996 (CINK4)) | IC50 (CGP-082996 (CINK4)) [µM] | AUC (HG-5-113-01) | IC50 (HG-5-113-01) [µM] | AUC (A-770041) | IC50 (A-770041) [µM] | AUC (XMD8-85) | IC50 (XMD8-85) [µM] | AUC (BMS-536924; [1]) | IC50 (BMS-536924; [1]) [µM] | AUC (BMS-536924; [2]) | IC50 (BMS-536924; [2]) [µM] | AUC (BIRB 0796) | IC50 (BIRB 0796) [µM] | AUC (SB-525334) | IC50 (SB-525334) [µM] | AUC (VX-702) | IC50 (VX-702) [µM] | AUC (Olaparib; [3]) | IC50 (Olaparib; [3]) [µM] | AUC (Olaparib; [4]) | IC50 (Olaparib; [4]) [µM] | AUC (Wee1 inhibitor 681640) | IC50 (Wee1 inhibitor 681640) [µM]
BT-474 (breast, adherent) | 0.289 | 0.233 | 0.969 | > 5.12 | 0.897 | > 10 | 0.933 | > 5.12 | 0.974 | > 8 | 0.978 | > 4 | 0.981 | > 5.12 | 0.985 | > 10 | 0.815 | 12.6 | 0.986 | > 2 | 0.984 | > 5 | 0.954 | > 10 | 0.982 | > 2
Becker (glioma, adherent) | 0.636 | 2.5 | 0.983 | > 5.12 | 0.816 | 6.45 | 0.783 | 2.45 | 0.817 | 5.18 | 0.956 | > 4 | 0.813 | 3.19 | 0.954 | > 10 | 0.956 | > 20 | 0.979 | > 2 | 0.978 | > 5 | 0.883 | > 10 | 0.935 | > 2
ES8 (Ewing sarcoma, adherent) | 0.409 | 0.575 | 0.975 | > 5.12 | 0.492 | 0.595 | 0.87 | 4.16 | 0.827 | 4.39 | 0.703 | 0.888 | 0.787 | 2.04 | 0.941 | > 10 | 0.852 | 13.8 | 0.974 | > 2 | – | – | – | – | 0.942 | > 2
IST-SL2 (small cell lung carcinoma, suspension) | 0.253 | 0.197 | 0.862 | 4.32 | 0.945 | > 10 | 0.663 | 0.905 | 0.798 | 3.77 | 0.987 | > 4 | 0.923 | > 5.12 | 0.966 | > 10 | – | – | 0.985 | > 2 | 0.948 | > 5 | 0.964 | > 10 | 0.958 | > 2
LB647-SCLC (small cell lung carcinoma, semi-adherent) | 0.278 | 0.215 | 0.981 | > 5.12 | 0.694 | 2.36 | 0.85 | 4.61 | 0.957 | > 8 | 0.943 | > 4 | 0.901 | > 5.12 | 0.938 | > 10 | – | – | 0.938 | > 2 | 0.893 | > 5 | 0.983 | > 10 | 0.969 | > 2
NOMO-1 (acute myeloid leukaemia, suspension) | 0.533 | 1.24 | 0.97 | > 5.12 | 0.78 | 4.71 | 0.941 | > 5.12 | 0.89 | > 8 | 0.971 | > 4 | 0.897 | > 5.12 | 0.982 | > 10 | 0.977 | > 20 | 0.851 | 1.87 | – | – | – | – | 0.882 | > 2
SCC-15 (head and neck, adherent) | 0.482 | 0.879 | 0.956 | > 5.12 | 0.74 | 3.92 | 0.87 | > 5.12 | 0.945 | > 8 | 0.786 | 2.41 | 0.904 | > 5.12 | 0.885 | > 10 | 0.972 | > 20 | – | – | – | – | 0.922 | > 10 | 0.947 | > 2
SNU-C1 (large intestine, suspension) | – | – | 0.943 | > 5.12 | 0.738 | 4.19 | 0.97 | > 5.12 | 0.973 | > 8 | 0.732 | 1.59 | 0.701 | 1.55 | 0.977 | > 10 | 0.973 | > 20 | 0.973 | > 2 | 0.98 | > 5 | 0.974 | > 10 | 0.959 | > 2
SU-DHL-8 (B-cell lymphoma, suspension) | 0.355 | 0.41 | 0.884 | 4.88 | 0.819 | 5.2 | 0.761 | 1.7 | 0.767 | 2.77 | 0.981 | > 4 | 0.93 | > 5.12 | 0.988 | > 10 | 0.857 | 14.6 | – | – | – | – | 0.907 | > 10 | 0.988 | > 2
TC-71 (Ewing sarcoma, adherent) | 0.526 | 1.16 | 0.992 | > 5.12 | 0.75 | 2.8 | 0.991 | > 5.12 | 0.992 | > 8 | 0.815 | 1.74 | 0.984 | > 5.12 | 0.952 | > 10 | 0.602 | 2.27 | – | – | – | – | 0.797 | 3.82 | 0.992 | > 2
TE-10 (oesophagus, adherent) | 0.542 | 1.3 | 0.839 | 3.4 | 0.698 | 2.22 | 0.734 | 1.46 | 0.854 | 6.11 | 0.932 | > 4 | 0.68 | 1 | 0.988 | > 10 | 0.979 | > 20 | – | – | – | – | 0.983 | > 10 | 0.945 | > 2
